Assay results published in PubChem BioAssay AID1347165 (National Center for Advancing Translational Sciences (NCATS), 2019).
Hit rate of the full screen: of about 220,000 compounds, about 5,700 (2.6%) were called active. The shares of active, inactive and inconclusive entries below differ from those in the screen. Calls follow the shape of the dose curve; as a rule, active = well fitted inhibition curve with a large enough effect; inconclusive = small, poorly fitted or top-dose-only effect; inactive = no such curve, though single readings can be large or run the other way. Potencies of inconclusive entries are doubtful fits and often do not repeat.

target: Lysine-specific demethylase 5B (Homo sapiens) (UniProt Q9UGL1); assay: Primary screen for KDM5B Histone Demethylases FDH-coupled qHTS; conditions: FDH-coupled NADH fluorescence (FDH is formaldehyde dehydrogenase); activity change, negative = inhibition: at 57.7 µM (top of the series) unless noted; also: nearly all actives have a fitted effect of over 70% in size; as to activity change, negative = inhibition: 0% is about no effect
Sequence of UniProt Q9UGL1 (Q9UGL1 whole entry, looked up): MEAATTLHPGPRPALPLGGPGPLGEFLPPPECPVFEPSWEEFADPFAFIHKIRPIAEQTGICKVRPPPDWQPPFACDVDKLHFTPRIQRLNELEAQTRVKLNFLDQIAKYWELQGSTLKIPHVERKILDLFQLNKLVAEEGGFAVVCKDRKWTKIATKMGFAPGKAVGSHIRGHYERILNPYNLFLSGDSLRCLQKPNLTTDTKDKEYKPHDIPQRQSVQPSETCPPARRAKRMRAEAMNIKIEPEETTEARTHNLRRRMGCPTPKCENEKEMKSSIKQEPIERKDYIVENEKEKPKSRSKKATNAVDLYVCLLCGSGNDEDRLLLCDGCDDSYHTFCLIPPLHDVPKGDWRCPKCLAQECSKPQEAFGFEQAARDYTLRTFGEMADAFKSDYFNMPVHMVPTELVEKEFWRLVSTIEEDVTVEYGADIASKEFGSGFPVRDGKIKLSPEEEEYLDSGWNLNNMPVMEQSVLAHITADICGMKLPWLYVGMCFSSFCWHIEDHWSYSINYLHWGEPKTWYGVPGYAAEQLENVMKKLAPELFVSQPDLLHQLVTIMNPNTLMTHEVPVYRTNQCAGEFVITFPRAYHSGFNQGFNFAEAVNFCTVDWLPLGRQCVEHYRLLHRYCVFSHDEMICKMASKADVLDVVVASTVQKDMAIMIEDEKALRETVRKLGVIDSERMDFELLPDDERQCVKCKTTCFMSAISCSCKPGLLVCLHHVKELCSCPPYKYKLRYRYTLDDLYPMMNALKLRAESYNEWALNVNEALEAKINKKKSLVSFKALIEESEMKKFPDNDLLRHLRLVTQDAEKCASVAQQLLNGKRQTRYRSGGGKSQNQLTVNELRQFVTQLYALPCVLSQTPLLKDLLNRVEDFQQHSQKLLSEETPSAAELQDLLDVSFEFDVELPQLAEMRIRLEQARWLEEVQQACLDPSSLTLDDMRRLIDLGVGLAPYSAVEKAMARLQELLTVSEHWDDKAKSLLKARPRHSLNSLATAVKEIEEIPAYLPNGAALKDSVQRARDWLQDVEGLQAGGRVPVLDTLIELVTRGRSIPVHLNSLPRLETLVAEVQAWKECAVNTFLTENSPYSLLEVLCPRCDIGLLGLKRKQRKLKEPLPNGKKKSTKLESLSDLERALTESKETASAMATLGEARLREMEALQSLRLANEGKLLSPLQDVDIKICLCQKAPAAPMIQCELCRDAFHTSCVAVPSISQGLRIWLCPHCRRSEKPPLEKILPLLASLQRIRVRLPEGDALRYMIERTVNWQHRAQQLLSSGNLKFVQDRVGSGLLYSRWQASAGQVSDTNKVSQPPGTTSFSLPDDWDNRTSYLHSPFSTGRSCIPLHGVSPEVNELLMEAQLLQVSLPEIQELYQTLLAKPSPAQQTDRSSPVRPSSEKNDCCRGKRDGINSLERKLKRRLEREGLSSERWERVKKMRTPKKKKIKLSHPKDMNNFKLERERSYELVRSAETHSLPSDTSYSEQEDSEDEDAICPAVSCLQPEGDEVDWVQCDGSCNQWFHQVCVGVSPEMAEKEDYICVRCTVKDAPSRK
Outline: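 Here, H3K4me3 peptide (12.5 µM in substrate mix) is demethylated by KDM5BΔAP, 200 nM final, after 10 min compound exposure. Formaldehyde product is coupled through FDH (0.25 U/mL in mix) to NADH fluorescence; 30-min ΔRFU feeds dose-response curves.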
Potency is read from the fitted curve at half-maximal effect; tags tell the direction and shape of the fitted curve.

Row | Structure (SMILES) | Potency | activity change, negative = inhibition
1 | CCCS(=O)(=O)N1CC(=O)N(c2ccccc2C)C(C)(C(=O)NC2CCCC2)C1 (stereo not drawn) | inconclusive: 2 µM [inhibitor, full curve, poor fit] | –
2 | Cc1cccc2c(C(=O)O)cc(-c3cccnc3)nc12 | inactive | –
3 | CCOC(=O)c1oc2c(c1C)-c1nn(Cc3ccccc3Cl)cc1CC2 | inconclusive: 39.8 µM [inhibitor, single point] | –
4 | O=C(Nc1ccc(Cl)cc1)c1nc2c(o1)CCN(CC1CCCC1)CC2 | inconclusive: 35.5 µM [inhibitor, partial curve, poor fit] | –
5 | Cc1ccc(C)c(NC(=O)C(=O)NCCc2csc3nc(-c4ccccc4C)nn23)c1 | inconclusive: 1.41 µM [inhibitor, partial curve, poor fit] | –
6 | COc1ccc2nc(C)c(C(=O)Nc3ccc4ccccc4n3)cc2c1 | – | inactive: 11.5%
7 | COCCCNC(=O)c1ccc2c(c1)n(Cc1ccc(OC)cc1)c(=O)c1ccnn12 | – | inactive: -14.1%
8 | CCC(C)[C@H](NC(=O)NCCc1ccc(Cl)cc1)C(=O)O (stereo partly drawn) | – | inactive: -7.2%
9 | COc1cc2c(cc1OC)CN(C(=O)C[C@@H]1CCNC[C@@H]1Cc1cc(-c3ccccc3)on1)CC2 | inconclusive: 28.2 µM [inhibitor, single point] | –
10 | CC(C)(C)OC(=O)N1CCC(c2c(C(=O)Nc3ccc4c(c3)OCCO4)cnn2-c2ccccc2)CC1 | inconclusive: 35.5 µM [inhibitor, single point] | –
11 | COc1cc(OC)cc(C(=O)N2CCC(c3nc(C4CCOC4)no3)CC2)c1 (stereo not drawn) | – | inactive: -6.81%
12 | CCc1ccccc1NC(=O)CN1C(=O)c2cccnc2Oc2ccc(Cl)cc21 | inconclusive: 2.51 µM [inhibitor, full curve, poor fit] | –
13 | CCc1cc(=O)oc2cc(OC(C)C(=O)N(C(C)C)C(C)C)ccc12 (stereo not drawn) | inconclusive: 5.62 µM [inhibitor, full curve, poor fit] | –
14 | CCS[C@H]1CCN2C(=O)c3cc(-c4cc(Cl)ccc4OC)ccc3NC(=O)[C@H]12 | – | inactive: -29.2% [at 86.2 µM]
15 | Cc1ccc(S(=O)(=O)c2nc(-c3ccco3)oc2SCC(C)C)cc1 | inconclusive: 25.1 µM [inhibitor, partial curve, poor fit] | –
16 | Cc1c(C(=O)NCCn2c(C)cc3ccccc32)cccc1[N+](=O)[O-] | – | inactive: 6.4%
17 | CCCCCNC(=O)Cc1csc2nc(C)c(-c3cc(C)n(-c4cccc(C)c4)n3)c(=O)n12 | inconclusive: 28.2 µM [inhibitor, partial curve, poor fit] | –
18 | CCOC(=O)c1ccccc1NC(=O)Cn1c(N2CCc3ccccc3C2)nc(C)cc1=O | inconclusive: 11.2 µM [inhibitor, partial curve, poor fit] | –
